# Laboratory results taken from paper PMC4336329 (PLoS ONE, 2015).
# The whole screen tested about 310,000 compounds, of which about 2,200 (0.71%) showed an effect of 50% or more. Effects have a minus sign here. The list shows a part of the results.
# Molecular target: human ether-à-go-go-related gene (hERG) potassium channel (human, UniProt Q12809)
# Assay: primary screen, population patch clamp on CHO cells stably expressing hERG
# Chain of human ether-à-go-go-related gene (hERG) potassium channel (Q12809 whole entry, looked up): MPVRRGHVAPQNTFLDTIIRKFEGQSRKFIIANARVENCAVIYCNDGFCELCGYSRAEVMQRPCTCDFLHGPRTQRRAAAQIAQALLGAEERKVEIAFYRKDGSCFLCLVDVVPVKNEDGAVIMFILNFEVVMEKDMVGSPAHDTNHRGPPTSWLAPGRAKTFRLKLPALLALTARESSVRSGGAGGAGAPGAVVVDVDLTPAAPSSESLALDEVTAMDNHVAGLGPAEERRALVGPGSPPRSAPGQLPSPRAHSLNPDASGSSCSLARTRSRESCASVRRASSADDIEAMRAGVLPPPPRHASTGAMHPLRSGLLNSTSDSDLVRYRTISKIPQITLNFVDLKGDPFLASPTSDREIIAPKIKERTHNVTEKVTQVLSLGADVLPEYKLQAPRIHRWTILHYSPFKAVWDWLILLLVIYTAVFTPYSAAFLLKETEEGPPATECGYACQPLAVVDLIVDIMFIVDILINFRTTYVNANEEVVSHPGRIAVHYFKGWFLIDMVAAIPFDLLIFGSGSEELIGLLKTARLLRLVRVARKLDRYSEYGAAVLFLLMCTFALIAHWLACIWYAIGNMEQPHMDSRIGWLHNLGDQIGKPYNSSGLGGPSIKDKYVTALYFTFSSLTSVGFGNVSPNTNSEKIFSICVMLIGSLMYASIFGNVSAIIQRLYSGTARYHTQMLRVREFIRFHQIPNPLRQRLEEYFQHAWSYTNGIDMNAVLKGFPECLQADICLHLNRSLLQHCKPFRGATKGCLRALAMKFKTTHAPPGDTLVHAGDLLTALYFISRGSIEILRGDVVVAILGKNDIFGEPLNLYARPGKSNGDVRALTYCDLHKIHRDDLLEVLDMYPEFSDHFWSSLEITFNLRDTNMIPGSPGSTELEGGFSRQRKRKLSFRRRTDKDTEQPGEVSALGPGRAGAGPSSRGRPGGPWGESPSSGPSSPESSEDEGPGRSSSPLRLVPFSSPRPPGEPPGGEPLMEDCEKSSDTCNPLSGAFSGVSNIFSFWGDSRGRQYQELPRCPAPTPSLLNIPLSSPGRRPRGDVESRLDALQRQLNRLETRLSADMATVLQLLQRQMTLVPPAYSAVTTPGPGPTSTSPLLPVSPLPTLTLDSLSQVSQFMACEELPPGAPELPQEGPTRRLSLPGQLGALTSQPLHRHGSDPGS
row,SMILES,"hERG current change (%, negative = inhibition) at 1uM [%]"
1,Cc1cc(NC(=O)CCC(=O)N(c2cccc(F)c2)C(C(=O)NC2CCCC2)c2ccccc2)no1 (stereo not drawn),18.1
2,Cc1ccc(S(=O)(=O)N[C@@H](Cc2ccccc2)C(=O)N2CCC(C(=O)N[C@@H](CC(C)C)C(=O)O)CC2)cc1,17.4
3,COc1ccc(NC(=O)c2sc(NC(=O)C3CC3)nc2C)cc1,2.78
4,c1cc2c3c(cccc3c1)NC1(CCCCC1)N2,13.4
5,CCOC(=O)C1CC(=O)c2cc(OC)c(OC)cc2C1 (stereo not drawn),7.84
6,Cn1cccc1C(=O)NC(=O)COC(=O)CC12CC3CC(CC(C3)C1)C2,10.4
7,CC1C/C(=N\NC(N)=S)c2cc(Cl)ccc2S1 (stereo not drawn),12.6
8,CCOC(=O)CSc1nnc(CNC(=O)c2ccc(OC)cc2)n1C1CCCCC1,1.03
9,Cc1ccc(NC(=O)CN(C)C(=O)C2COc3ccccc3O2)cc1 (stereo not drawn),16.1
10,S=c1[nH]nc(COc2ccccc2)n1/N=C/C(Cl)=C/c1ccccc1,11.3
11,N#Cc1ccccc1NS(=O)(=O)c1cc2c3c(c1)CCN3C(=O)CC2,11.6
12,CCC[N+]1(CC#CC2(O)CCCCC2)CCOCC1.[I-],5.18
13,COc1cccc(NC(=S)N2CCCC2)c1,14.3
14,CS(=O)(=O)c1nc2ccccc2n1Cc1ccccc1,0.66
15,O=C(Cn1c2ccc(F)cc2c2nc3n(c(=O)c21)CCS3)NC1CCCC1,8.76
16,CC(=O)Nc1ccc(Nc2ncc([N+](=O)[O-])c(Nc3ccc(NC(C)=O)cc3)n2)cc1,11.2
17,CCOc1ccc(-c2c(C)sc3nc[nH]c(=O)c23)cc1,13.7
18,Cl.N=c1n(CCO)c2ccccc2n1CCOc1ccc(Cl)cc1Cl,-33.6
19,O=C(NC1CCCCC1)C(c1ccncc1)N(Cc1ccc2c(c1)OCO2)C(=O)c1cnsn1 (stereo not drawn),5.5

row,SMILES,"hERG current change (%, negative = inhibition) at 1uM [%]"
1,CCCc1ccc(C(=O)O/N=C(\N)c2ccccn2)cc1,4.27
2,COc1ccc(-c2csc(/C=C/c3ccc4c(c3)OCO4)n2)cc1OC,2.68
3,CCc1nnc(NC(=O)CSc2nnc(CNc3ccc(Cl)cc3)o2)s1,2.71
4,O=C1CN(C(=O)c2ccco2)c2ccccc2N1,11.3
5,CCOC(=O)c1cc(S(=O)(=O)NCc2ccco2)cn1C,8.14
6,Cc1cc(C)cc(N2C(=O)CC(Cn3nc(C)cc3C)C2=O)c1 (stereo not drawn),4.61
7,CCOC(=O)CSc1nnc(CNC(=O)c2cccs2)n1-c1ccccc1,3.45
8,O=S(=O)(c1cccc(-c2nnc3n2CCCCC3)c1)N1CCOCC1,5.29
9,Fc1ccc(NC(=S)NCc2cccs2)cc1,2.52
10,CCCCCCCN1C(Nc2ccccc2)=NC[C@@H]1Cc1ccccc1,-79.6
11,CC(C)CN(C(=O)COC(=O)C(C)N1C(=O)c2ccccc2C1=O)c1c(N)n(Cc2ccccc2)c(=O)[nH]c1=O (stereo not drawn),5.55
12,O=C(O)/C=C/C(=O)Nc1ccc(OC(F)F)cc1,-5.6
13,O=C(NCCN1CCOCC1)c1ccc2c(c1)N(Cc1ccccc1F)C(=O)c1ccccc1S2,11.4
14,Cc1ccc([N+](=O)[O-])cc1NC(=O)CN1CCC(C)CC1,11
15,COCCNC(=S)N1CCN(c2cccc(C)c2C)CC1,14.4
16,O=S(=O)(Nc1cccnc1)c1ccc(F)cc1,11.6
17,CCCCCOC(=O)C1[C@H]2C(=O)N(Cc3cccs3)C[C@]23C=C[C@H]1O3 (stereo partly drawn),8.86
18,C/C(=N\Nc1nc2ccccc2s1)c1ccc2c(c1)OCO2,13.8
19,COc1ccccc1N1CCN(Cc2cc(C)c(C)cc2O)CC1,-1.06

row,SMILES,"hERG current change (%, negative = inhibition) at 1uM [%]"
1,Cc1cc(C)c(NC(=O)CSc2nnc(-c3ccncc3)n2Cc2ccco2)c(C)c1,-12.6
2,Cc1ccccc1C1C(C#N)=C2NC(=O)c3c(sc4c3CCCCC4)N2C2=C1C(=O)CC(C)(C)C2 (stereo not drawn),10.2
3,CCOc1cc(/C=C/c2cc(C(F)(F)F)[nH]c(=O)n2)ccc1O,15.5
4,Cc1ccc(/C=C2/SC(=S)N(c3ccc(S(=O)(=O)Nc4nccs4)cc3)C2=O)cc1,15.4
5,Cc1ccc(-c2cc(C(F)F)nc(NCc3cccnc3)n2)cc1,12.7
6,Cn1c(CSc2nc3ccccc3n2C)nc2ccccc21,11
7,C#CCn1cnc2c(cnn2-c2ccc(C)c(C)c2)c1=O,8.4
8,Cc1cccc(C)c1NC(=S)N(Cc1cccnc1)Cc1ccccc1Cl,6.92
9,Cc1nnc(Nc2ccc(F)cc2)c2ccccc12,-5.84
10,COc1ccc(-c2cc3cc(-c4cc(OC)c(OC)c(OC)c4)ccc3o2)cc1,8.79
11,CSc1nc2nc3c(c(=O)n2[nH]1)CN(Cc1ccccc1)CC3,6.65
12,CC(=O)O[C@H]1[C@H]2O[C@]23[C@@H]2CC[C@]4(O)C[C@@H](O)CC[C@]4(C)C2CC[C@]3(C)[C@H]1c1ccc(=O)oc1 (stereo partly drawn),6.84
13,NS(=O)(=O)c1cnccc1Nc1ccc(Cl)c(Cl)c1,7.19
14,COc1ccc(-c2nc(C#N)c(NCCCN3CCOCC3)o2)cc1,-5.64
15,Cc1cccc(NC(=O)c2nc[nH]c2C(=O)NCc2ccccc2)c1,8.93
16,Cc1nn(C(C)C(=O)NNC(=S)Nc2ccc(Cl)cc2)c(C)c1[N+](=O)[O-] (stereo not drawn),4.3
17,CC1(C)CC(=O)CC(=NCC(=O)O)C1,12
18,COCCN(CCOC)c1nc(-c2ccc(C)cc2)nc2ccccc12.Cl,-24.9
19,CN(C)S(=O)(=O)c1cc(C(=O)OCCn2cnc3c2c(=O)n(C)c(=O)n3C)ccc1Cl,-14.2
